# Laboratory results published in article PMC6919601, “Identification of Plasmodium dipeptidyl aminopeptidase allosteric inhibitors by high throughput screening” (PLoS ONE, 2019).
# Among all 110,000 compounds or so, about 230 (0.21%) showed an effect of 50% or more. Some of the results follow.
# Biological target: DPAP1 (Plasmodium falciparum, UniProt Q8IIJ9)
# Experiment: primary screen, percent inhibition; read by cleavage of a fluorogenic dipeptide substrate; higher = more effect of the substance
# Set-up: species or system P. falciparum D10 trophozoite lysates; single well
# 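Also: 30 min substrate incubation versus DMSO and 10 µM JCP410 controls.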
# Sequence of DPAP1 (Q8IIJ9 whole entry, looked up): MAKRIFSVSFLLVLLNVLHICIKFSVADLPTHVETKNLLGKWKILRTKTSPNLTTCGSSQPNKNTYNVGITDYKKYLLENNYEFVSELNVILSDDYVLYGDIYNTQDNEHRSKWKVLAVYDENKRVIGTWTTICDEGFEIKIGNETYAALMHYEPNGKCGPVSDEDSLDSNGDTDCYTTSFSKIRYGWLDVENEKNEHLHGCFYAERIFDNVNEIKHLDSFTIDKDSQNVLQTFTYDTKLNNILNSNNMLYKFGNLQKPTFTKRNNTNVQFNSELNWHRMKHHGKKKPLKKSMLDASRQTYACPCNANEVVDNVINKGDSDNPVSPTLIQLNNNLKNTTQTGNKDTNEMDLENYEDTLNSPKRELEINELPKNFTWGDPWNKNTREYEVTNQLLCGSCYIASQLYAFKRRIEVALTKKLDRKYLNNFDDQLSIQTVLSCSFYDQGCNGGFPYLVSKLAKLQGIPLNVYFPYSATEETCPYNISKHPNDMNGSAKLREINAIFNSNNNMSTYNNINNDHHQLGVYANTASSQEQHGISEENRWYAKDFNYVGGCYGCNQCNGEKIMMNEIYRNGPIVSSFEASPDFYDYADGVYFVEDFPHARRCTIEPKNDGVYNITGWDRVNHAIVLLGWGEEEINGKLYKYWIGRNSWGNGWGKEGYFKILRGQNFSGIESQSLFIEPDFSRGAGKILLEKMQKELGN
row,SMILES,% Inhibition @ 10 uM
1,COc1ccc(CCNCc2c(C(=O)O)n(Cc3ccc(C)cc3)c3cc(C)ccc23)cc1OC,4.92%
2,COCCCNC(=O)CSc1nc2ccccc2c2nc(CCn3c(C)nc4ccccc43)nn12,-0.112%
3,COc1cc(-c2ccc(NS(C)(=O)=O)c(OC)c2)ccc1NS(C)(=O)=O,4.83%
4,CC1CCCC(NC(=O)Cn2c(=O)c3cccn3c3cccnc32)C1C (centres unmarked),-2.1%
5,CCOc1ccccc1NC(=O)c1cc2c(ccc3ccccc32)o1,-4.76%
6,CC(C)(C)c1cc(C(=O)NCCCn2ccnc2)cc(C(C)(C)C)c1,0.983%
7,CC1(C)CC(=O)C2=C(C1)NC(=O)CC2c1cccc(F)c1 (centres unmarked),-2.56%
8,COC(=O)c1ccc(CO/N=C(\NC(C)=O)c2nonc2NC(C)=O)cc1,2.7%
9,CCOc1ccc(N2C(=O)CC(N3CCCCC3C)C2=O)cc1 (centres unmarked),2.36%
10,COc1cccc(NC(=O)c2cccc(OC)c2)c1,-1.25%
11,Fc1ccccc1Cn1cnc2ccccc21,-2.24%
12,O=C1/C(=C\c2ccc(Br)cc2)S(=O)(=O)c2ccccc21,1.57%
13,C=CC[n+]1c(/C=C2\C=CC=CN2C)sc2ccccc21,-1.11%
14,Cc1onc(-c2ccccc2Cl)c1C(=O)N1CCN(c2ccccc2)CC1,-3.35%
15,O=C1c2ccccc2C(=O)N1CC(O)CNc1ccc(Br)cc1 (centres unmarked),-7.63%
16,OCCNC1CCCc2c1[nH]c1ccc(Br)cc21 (centres unmarked),-4.5%
17,CC1(C)CC(=O)c2c(oc3c2cc(NS(=O)(=O)c2cccs2)c2ccccc23)C1,13.3%
18,CCC(C)NC(=O)c1sc2ncn(CC(=O)NCCCOC)c(=O)c2c1C (centres unmarked),-0.458%
19,CCC(C(=O)NC1CCCCCC1)n1sc2ccccc2c1=O (centres unmarked),1.61%
20,CC(C)N1C(=O)/C(=C\c2cccc(O)c2)S/C1=N/c1ccccc1,-2.15%
21,CCSc1nnc(NC(=O)C2CCN(S(=O)(=O)c3c(C)nc(O)nc3O)CC2)s1,1.76%

row,SMILES,% Inhibition @ 10 uM
1,Cc1ccc2[nH]c(C(=O)O)c(CCN)c2c1,5.54%
2,CCOCCCNC(=O)C(C)n1nc(C)c2c(C)n(-c3ccccc3)nc2c1=O (centres unmarked),1.45%
3,Cc1sc2ncnc(SCC(=O)NCCc3ccccc3)c2c1C,-11%
4,CCN1CCN(C(=O)C2CCC(C/N=c3/c(N4CCC(C)CC4)c(O)c3=O)CC2)CC1 (centres unmarked),-0.447%
5,CCN(CC)c1ccc(C=C2C(=O)NC(=O)NC2=O)c(OC)c1,-0.414%
6,CCn1c(=S)[nH]c2c(c1=O)C1(CCCC1)Cc1ccccc1-2,-0.711%
7,CCCN(CCC)CCNC(=O)Cn1ncc2c1-c1cc(C)ccc1OC2,-5.72%
8,CCSc1nc2c(c(=O)n1-c1ccc(OC)cc1)C1(CCCC1)Cc1ccccc1-2,6.49%
9,COCCn1c(CCC(=O)O)ccc1-c1ccc(OC)cc1,-2.92%
10,CCOC(=O)c1ccc2ncc(C(=O)OCC)c(NCCCOC(=O)c3ccc(Cl)cc3)c2c1,-3.97%
11,NS(=O)(=O)c1ccc(CCNC(=O)C2CCN(c3cnccn3)CC2)cc1,-6.6%
12,N#CC1=C(N)OC2=C(C(=O)CC(c3ccccc3)C2)C1c1cccc(C(F)(F)F)c1 (centres unmarked),-0.261%
13,N#Cc1cc2c(N)c(C(=O)Nc3ccccc3Oc3ccccc3)sc2nc1N,28.2%
14,CC[C@H](NC(=O)[C@H](CS(=O)(=O)Cc1ccccc1)O[Si](C(C)C)(C(C)C)C(C)C)C(=O)c1nc2ccccc2o1,-0.214%
15,CC(C)C(=O)Nc1ccc(NC(=O)Cc2ccccc2)cc1,-5.46%
16,CCOC(=O)N1CCC(/N=c2\c(O)c(O)\c2=N/C(C)CC)CC1 (centres unmarked),0.277%
17,O=C(Nc1ccc(Cc2ccc(NC(=O)C3CCCO3)cc2)cc1)C1CCCO1 (centres unmarked),0.173%
18,CCOc1ccc(C(=O)c2oc3ccccc3c2NC(=O)c2nc(S(C)(=O)=O)ncc2Cl)cc1,0.569%
19,O=C(Nc1ccc(F)cc1)c1ccc(Cl)cc1,1.63%
20,COc1cc(OC)cc(C2=N/C(=C\c3sccc3C)C(=O)O2)c1,-5.43%
21,COc1cccc(CNCc2c(C(=O)O)n(Cc3ccccc3)c3ccccc23)c1,5.09%

row,SMILES,% Inhibition @ 10 uM
1,CCOC(=O)c1cc(S(=O)(=O)N2CCN(c3ncccn3)CC2)cn1C,-4.68%
2,NCC1OCCc2ccccc21 (centres unmarked),1.84%
3,CCCCNC(=S)NCc1ccc2c(c1)cc(C)n2C,1.55%
4,O=S(=O)(Nc1ccc(Cl)cc1Cl)c1ccc(F)cc1,-2.82%
5,CC(NC(=O)CCn1ccc2cc(S(=O)(=O)N3CCCC3)ccc21)c1ccccc1 (centres unmarked),-0.486%
6,CC1(C)CC(=O)C2=C(C1)N(c1ccc(Br)cn1)C(N)=C(C#N)C2c1ccsc1 (centres unmarked),1.4%
7,CCN1CCC(N2CCCCC2)CC1,-5.94%
8,CSc1ccc(CCNC(=O)C2CCCN(S(=O)(=O)N(C)C3CCCCC3)C2)cc1 (centres unmarked),-7.53%
9,O=S(=O)(NC1CCC(NS(=O)(=O)c2ccc(Cl)cc2)CC1)c1ccc(Cl)cc1 (centres unmarked),5.26%
10,Cc1ccc(CNC(=O)CCCCCNc2nc(S)nc3ccccc23)o1,0.925%
11,CC1CCCN(c2nc3c(S(=O)(=O)c4cccc(Cl)c4)nnn3c3ccsc23)C1 (centres unmarked),-4.34%
12,O=C(O)C1(c2ccccc2)CCOCC1,0.884%
13,O=C(c1ccccc1)c1cccn1CC(=O)N1CCC(Cc2ccccc2)CC1,2.76%
14,CCCCNC(=O)CSc1nc2sc(C(=O)OCC)c(C)c2c(=O)n1Cc1ccccc1,-0.284%
15,CCCNC(=O)Cn1nc(C)c2c(C)n(-c3ccc(C)cc3)nc2c1=O,-6.53%
16,COC(=O)c1cc(S(=O)(=O)NC2CCCCC2C)c[nH]1 (centres unmarked),2.81%
17,N#C/C(=C\c1c[nH]nc1-c1ccccc1)c1nc2ccccc2[nH]1,-6.06%
18,CCCc1nn(-c2ccc(F)cc2)c(O)c1/C=N/CCc1ccccc1,0.658%
19,O=C(CNS(=O)(=O)c1ccccc1)N1CCc2ccccc2C1,-0.795%
20,Cc1nc2c3ccccc3n3c(CCCC(=O)N4CCN(Cc5ccccc5)CC4)nnc3n2n1,17.9%
